Results are given in words; binding and its absence hold for the method and conditions named. Binding seen in cells or lysates may run through a third protein. Some binding calls cover weakened binding; strength is not graded here.
Assays:
[1] = biological target: Myc-tagged human SORLA (pCMV6-Entry-SORL1) (human) (UniProt Q92673); experiment: co-IP; HEK293 cells co-expressing the tagged proteins; IP with a Myc antibody; IP buffer 10 mM Tris, 1% NP-40, 10% glycerol, 5 mM EDTA, 5 mM EGTA, pH 7.6; some cells treated with dibutyryl-cAMP or PMA or co-expressing PKCι/λ-A120E
[2] = biological target: SORLA F2172 to A mutant (mutation in the FANSHY motif) (human) (UniProt Q92673); experiment: as above
[3] = biological target: endogenous SORLA of human prefrontal cortex (human (endogenous in prefrontal cortex)) (UniProt Q92673); experiment: co-IP; human postmortem prefrontal cortex lysates (control and AD); IP with a mouse anti-SORLA antibody (BD Biosciences), protein G beads; 10 mM Tris pH 7.6, 10% glycerol, 1% Nonidet P-40, 5 mM EDTA, 5 mM EGTA
[4] = biological target: endogenous SORLA of mouse brain (mouse (endogenous in cerebral cortex)) (UniProt O88307); experiment: co-IP; mouse cortical lysates (WT, Arrb2-/-, AppKI; vehicle, Go6976, CRT0066854 or auranofin treatment); IP with an anti-SORLA antibody, protein G beads; 10 mM Tris pH 7.6, 10% glycerol, 0.5% Nonidet P-40, 5 mM EDTA, 5 mM EGTA
GST-fused βARR2 = GST-fused βARR2 (UniProt P32121); experiment: pull-down; GST fusion proteins on glutathione-conjugated agarose beads incubated with in vitro translated, biotinylated-lysine-labeled SORLA-C; bound probe detected colorimetrically after SDS-PAGE; only the target purified
GST-SMAD2 = GST-SMAD2 (UniProt Q15796); experiment: as above

Protein sequences, listed by entry. Tags and fused reporters are not part of them. Residues count along the entry.
UniProt O88307, residues 82-2215: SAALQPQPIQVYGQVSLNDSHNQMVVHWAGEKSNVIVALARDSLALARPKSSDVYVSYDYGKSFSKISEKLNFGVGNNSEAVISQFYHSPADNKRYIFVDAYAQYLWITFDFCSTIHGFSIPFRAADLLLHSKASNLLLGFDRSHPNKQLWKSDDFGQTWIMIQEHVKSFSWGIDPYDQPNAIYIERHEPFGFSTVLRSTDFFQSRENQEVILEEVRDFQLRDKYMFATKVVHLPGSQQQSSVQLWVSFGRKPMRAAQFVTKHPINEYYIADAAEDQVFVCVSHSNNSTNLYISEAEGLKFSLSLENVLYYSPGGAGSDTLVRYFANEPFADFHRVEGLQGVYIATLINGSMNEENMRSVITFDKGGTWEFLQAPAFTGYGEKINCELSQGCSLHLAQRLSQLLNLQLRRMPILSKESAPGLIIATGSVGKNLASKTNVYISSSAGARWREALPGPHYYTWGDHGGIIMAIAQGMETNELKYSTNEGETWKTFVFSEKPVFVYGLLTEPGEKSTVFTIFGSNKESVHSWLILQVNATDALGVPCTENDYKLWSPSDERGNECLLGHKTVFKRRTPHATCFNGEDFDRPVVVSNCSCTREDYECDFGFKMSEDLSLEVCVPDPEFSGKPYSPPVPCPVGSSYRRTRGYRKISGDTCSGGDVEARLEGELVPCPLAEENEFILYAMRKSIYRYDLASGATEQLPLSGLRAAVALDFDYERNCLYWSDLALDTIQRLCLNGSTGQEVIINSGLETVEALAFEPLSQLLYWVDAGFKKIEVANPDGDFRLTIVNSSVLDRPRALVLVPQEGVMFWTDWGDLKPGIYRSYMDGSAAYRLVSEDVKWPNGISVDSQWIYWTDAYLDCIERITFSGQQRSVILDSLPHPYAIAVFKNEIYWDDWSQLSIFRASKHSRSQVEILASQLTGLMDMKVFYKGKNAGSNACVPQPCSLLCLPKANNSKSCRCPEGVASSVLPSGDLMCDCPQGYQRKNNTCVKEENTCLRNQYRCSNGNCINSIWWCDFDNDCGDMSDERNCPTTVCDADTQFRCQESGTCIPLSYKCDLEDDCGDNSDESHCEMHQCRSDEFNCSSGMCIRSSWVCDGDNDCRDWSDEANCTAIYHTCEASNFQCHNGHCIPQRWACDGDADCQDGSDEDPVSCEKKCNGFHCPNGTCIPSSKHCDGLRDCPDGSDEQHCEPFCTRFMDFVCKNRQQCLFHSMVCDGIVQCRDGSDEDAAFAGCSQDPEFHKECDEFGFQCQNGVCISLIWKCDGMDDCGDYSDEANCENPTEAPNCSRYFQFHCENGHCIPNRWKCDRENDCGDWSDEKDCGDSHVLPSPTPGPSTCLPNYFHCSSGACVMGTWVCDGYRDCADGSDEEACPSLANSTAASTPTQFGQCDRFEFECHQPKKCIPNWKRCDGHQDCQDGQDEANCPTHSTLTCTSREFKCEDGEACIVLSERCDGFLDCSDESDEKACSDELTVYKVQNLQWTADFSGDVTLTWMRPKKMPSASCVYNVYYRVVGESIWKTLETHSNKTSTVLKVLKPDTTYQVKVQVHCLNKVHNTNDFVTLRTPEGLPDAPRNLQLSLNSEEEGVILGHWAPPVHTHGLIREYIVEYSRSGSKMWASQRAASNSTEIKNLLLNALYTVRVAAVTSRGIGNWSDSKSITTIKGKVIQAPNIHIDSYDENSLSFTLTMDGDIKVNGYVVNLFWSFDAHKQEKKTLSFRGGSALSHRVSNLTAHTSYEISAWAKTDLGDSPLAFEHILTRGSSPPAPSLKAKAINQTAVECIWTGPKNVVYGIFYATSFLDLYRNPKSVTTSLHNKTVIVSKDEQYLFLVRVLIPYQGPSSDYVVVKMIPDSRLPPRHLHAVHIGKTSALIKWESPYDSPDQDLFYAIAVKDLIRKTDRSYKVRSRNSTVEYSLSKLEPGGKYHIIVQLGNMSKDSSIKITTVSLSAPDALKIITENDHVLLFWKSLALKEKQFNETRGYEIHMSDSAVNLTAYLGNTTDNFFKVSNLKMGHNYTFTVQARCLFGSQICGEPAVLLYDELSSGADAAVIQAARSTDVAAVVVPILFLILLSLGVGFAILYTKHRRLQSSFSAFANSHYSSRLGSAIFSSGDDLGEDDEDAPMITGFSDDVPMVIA
UniProt Q15796: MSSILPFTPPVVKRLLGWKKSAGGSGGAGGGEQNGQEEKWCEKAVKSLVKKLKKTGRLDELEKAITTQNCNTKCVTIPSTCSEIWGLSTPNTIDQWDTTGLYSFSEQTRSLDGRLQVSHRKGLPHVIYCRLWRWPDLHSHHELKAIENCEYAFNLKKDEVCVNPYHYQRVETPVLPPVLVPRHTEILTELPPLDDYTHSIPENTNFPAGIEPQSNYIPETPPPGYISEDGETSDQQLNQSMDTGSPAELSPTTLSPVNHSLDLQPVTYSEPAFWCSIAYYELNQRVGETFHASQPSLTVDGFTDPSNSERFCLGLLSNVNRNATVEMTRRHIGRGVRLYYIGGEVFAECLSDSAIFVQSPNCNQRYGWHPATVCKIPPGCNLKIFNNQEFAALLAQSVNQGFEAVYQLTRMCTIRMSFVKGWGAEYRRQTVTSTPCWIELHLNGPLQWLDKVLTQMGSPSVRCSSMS

Molecule: GFP-tagged βARR2 (β-arrestin2) (from UniProt P32121 1-409)
- binding [1]: binds
- binding [2]: binds weakly

Molecule: endogenous βARR2 of human prefrontal cortex (from UniProt P32121 1-409)
- binding [3]: binds

Molecule: endogenous βARR2 of mouse brain (from UniProt Q91YI4 1-410)
- binding [4]: binds

B1: SORLA-C (signal peptide a.a. 1-34 joined to the C terminal sequence a.a. 2111-2214 of SORLA) (domain or fragment, UniProt Q92673 1-34; Q92673 2111-2214)
chain: MATRSSRRESRLPFLFTLVALLPPGALCEVWTQRPAILLYDELGSGADASATQAARSTDVAAVVVPILFLILLSLGVGFAILYTKHRRLQSSFTAFANSHYSSRLGSAIFSSGDDLGEDDEDAPMITGFSDDVPMVIA
modifications: biotinylated lysine (Transcend tRNA) incorporated during in vitro translation
- binding (GST-fused βARR2): binds
- binding (GST-SMAD2): no binding

— PMC12186327
